Among all 310,000 compounds or so, about 2,200 (0.71%) showed an effect of 50% or more. Effects have a minus sign here. The list shows a part of the results.
The molecules below were run against human ether-à-go-go-related gene (hERG) potassium channel (human, UniProt Q12809) (assay: primary screen, population patch clamp on CHO cells stably expressing hERG).
Sequence of human ether-à-go-go-related gene (hERG) potassium channel (Q12809 whole entry, looked up): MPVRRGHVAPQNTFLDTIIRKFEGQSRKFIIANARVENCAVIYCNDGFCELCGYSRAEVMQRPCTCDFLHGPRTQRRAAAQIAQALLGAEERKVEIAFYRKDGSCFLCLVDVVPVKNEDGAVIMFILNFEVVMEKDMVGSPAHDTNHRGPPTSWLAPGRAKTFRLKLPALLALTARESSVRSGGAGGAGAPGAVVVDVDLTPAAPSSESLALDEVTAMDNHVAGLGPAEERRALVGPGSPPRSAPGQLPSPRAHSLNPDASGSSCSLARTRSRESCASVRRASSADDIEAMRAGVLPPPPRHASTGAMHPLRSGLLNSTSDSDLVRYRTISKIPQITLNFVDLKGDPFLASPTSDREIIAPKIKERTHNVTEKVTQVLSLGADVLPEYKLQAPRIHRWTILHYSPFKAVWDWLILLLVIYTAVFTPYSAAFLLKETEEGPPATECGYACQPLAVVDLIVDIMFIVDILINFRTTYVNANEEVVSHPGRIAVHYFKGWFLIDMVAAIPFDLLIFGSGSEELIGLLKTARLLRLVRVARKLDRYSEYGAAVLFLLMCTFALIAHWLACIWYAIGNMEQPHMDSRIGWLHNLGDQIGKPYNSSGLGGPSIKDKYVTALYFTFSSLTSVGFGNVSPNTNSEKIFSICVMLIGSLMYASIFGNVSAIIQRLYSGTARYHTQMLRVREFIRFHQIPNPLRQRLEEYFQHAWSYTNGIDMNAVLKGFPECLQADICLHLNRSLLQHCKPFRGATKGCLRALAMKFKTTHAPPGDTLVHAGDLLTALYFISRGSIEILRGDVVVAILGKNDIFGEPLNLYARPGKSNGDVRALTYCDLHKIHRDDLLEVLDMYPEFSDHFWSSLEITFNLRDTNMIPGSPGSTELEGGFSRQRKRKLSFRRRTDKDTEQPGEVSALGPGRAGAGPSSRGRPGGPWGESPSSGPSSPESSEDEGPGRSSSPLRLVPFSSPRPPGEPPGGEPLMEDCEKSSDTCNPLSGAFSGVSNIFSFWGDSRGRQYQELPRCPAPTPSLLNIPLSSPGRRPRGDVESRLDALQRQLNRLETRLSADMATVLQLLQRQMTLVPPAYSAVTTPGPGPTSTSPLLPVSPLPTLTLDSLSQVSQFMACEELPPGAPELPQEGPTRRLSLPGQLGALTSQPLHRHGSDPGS

SMILES	hERG current change (%, negative = inhibition) at 1uM
CCN1CCN(c2oc(COc3ccc(Cl)cc3)nc2C#N)CC1	-79.3%
O=S(=O)(Cc1ccc(Cl)cc1)C1CCCCC1O (stereo not drawn)	11.5%
COc1ccc(/C=N/Nc2nc(C)cc(-c3ccccc3)n2)cc1OC	4.53%
COc1cccc(-c2c(-c3cc(OC)cc(OC)c3)n(C)c3ccc(-c4cccc5[nH]ccc45)cc23)c1	10.2%
Cc1ccc2nc(Nc3ccc(C)c(Cl)c3)c3nncn3c2c1	10.7%
Cc1ccc(C)c(N(CC(=O)NCc2ccc3c(c2)OCO3)C(=O)CCC(=O)Nc2ccccn2)c1	0.821%
CCOc1ccc(Br)cc1S(=O)(=O)Nc1ccc(C(=O)OCC(=O)N(C)c2ccccc2)cc1	13.6%
O=c1c(Cl)nc2cc(Cl)ccc2n1CCNc1ncc(C(F)(F)F)cc1Cl	12.9%
Cn1c(CN2CCCC2)nc2cc(NS(=O)(=O)c3ccccc3)ccc21	1.78%
CC(=O)c1c(C)[nH]c(C(=O)Nc2cccc(S(=O)(=O)N(C)c3ccccc3)c2)c1C	2.45%
CCc1nnc(NC(=O)CSc2nnc(C(C)NC(=O)c3ccccc3F)n2C)s1 (stereo not drawn)	8.99%
COc1cccc(-c2c(C(=O)N/N=C(\C)c3ccco3)nnn2-c2nonc2N)c1	19.7%
Cc1ccc2c(c1)N(C(=O)CCC(=O)NCc1ccccn1)CC(C)O2 (stereo not drawn)	2.39%
CC(C)c1ccccc1NC(=O)c1cccc(NC(=O)c2ccccc2)c1	1.18%
Cc1cccc(NC(=O)CC(C)S(=O)(=O)c2ccc3c(c2)NC(=O)CO3)c1C (stereo not drawn)	-12%
CCCN(CCC)CC(O)CN1C(=O)N(CN2C(=O)N(CC(O)CN(CCC)CCC)C(=O)C2(C)C)C(C)(C)C1=O (stereo not drawn)	13.1%
Nc1ccc(N(c2ccccc2)c2ccc(N)cc2)cc1	1.88%
CCOC(=O)N1CCN(Cc2nc3cc(NC(=O)CC)ccc3n2C)CC1	11.5%
COc1ccc(C)cc1NS(=O)(=O)c1ccc2c(c1)NC(=O)C(C)S2 (stereo not drawn)	9.54%
CC(=O)c1c(N=CN(C)C)nc(C)nc1-c1ccccc1	6.43%
O=C(O)C(=O)O.O=C(c1ccccc1)N1CCN(CC(O)Cn2ccc3ccccc32)CC1 (stereo not drawn)	-9.28%

SMILES	hERG current change (%, negative = inhibition) at 1uM
Cc1ccccc1C(=O)Nc1nnc(-c2ccc(C(C)(C)C)cc2)s1	7.46%
COc1cccc(NC(=O)NC2CCCCC2C)c1 (stereo not drawn)	11.3%
CSCCC(NC(=O)c1cc(C)oc1C)C(=O)O (stereo not drawn)	-3.45%
CCCn1cc(CN2CCc3ccc(NC(=O)C4CCCO4)cc3C2)c(C)n1 (stereo not drawn)	9.52%
O=C(Cc1cccs1)N=Nc1c(O)[nH]c2ccccc12	10.2%
O=C(O)CSCc1c(F)cccc1Cl	-1.76%
Cc1cc(C)cc(NC(=O)COC(=O)Cc2ccccc2F)c1	9.13%
C=CCN(c1ccc(C(=O)Nc2ccc(NC(C)=O)cc2)cc1)S(C)(=O)=O	17.3%
CN1CCN(C(=O)CNC(=O)Cc2ccc(Cl)cc2)CC1	9.18%
Cc1cc2ccccn2c1C(=O)c1ccc([N+](=O)[O-])cc1[N+](=O)[O-]	14.6%
CCOC(=O)c1c(C)[nH]c(C(=O)C(Cc2ccccc2)N(C)C)c1C.Cl (stereo not drawn)	-1.7%
Cc1cc(C)c2nc(N3C(=O)C(O)=C(C(=O)c4ccco4)C3c3cccc(O)c3)sc2c1 (stereo not drawn)	11.5%
COc1ccc(C(=O)Nc2nnc(Cc3ccccc3)s2)c(OC)c1	6.93%
O=C1C=C(c2ccc3ncccc3c2)C[C@@H](c2ccc(F)cc2)C1	4.68%
COC(=O)C1=C(c2ccc(OC)c(OC)c2)C[C@@H]2CC[C@H]1N2C(=O)NCc1cc(C)oc1C(F)(F)F	14.6%
CCOC(=O)c1cc2cc(CC(=O)c3ccc(OCC)cc3O)ccc2o1	8.63%
COc1ccc(NC(=O)/C(=C\c2ccc3c(c2)OCO3)NC(C)=O)cc1	3.52%
Cc1ccc(C)c(NS(=O)(=O)c2cc(C(=O)NCCC3=CCCCC3)ccc2C)c1	1.85%
COc1ccccc1CNC(=O)C1CC(=O)N(c2ccc(C)c(C)c2)C1 (stereo not drawn)	8.27%
CCOc1ccc(NC(=O)NCCCN2CCCC2)cc1	5.43%
COC(=O)C1CCN(c2ccc([N+](=O)[O-])cc2)CC1	4.38%

SMILES	hERG current change (%, negative = inhibition) at 1uM
COc1ccc(C(=O)COC(=O)c2ccc(NC(=O)c3ccccc3)cc2)cc1	-2.27%
CCOc1ccc(NC(=O)CCC(=O)n2nc(C)cc2C)cc1	8.47%
COc1ccc(C(c2nnnn2C(C)(C)C)N2CCN(C(=O)c3ccco3)CC2)cc1 (stereo not drawn)	-4.01%
Cc1ccc(C)c(OCCNc2ncccc2[N+](=O)[O-])c1	13.6%
CCOc1ccc(N=C(/C(C(=O)C(=O)N2CCOCC2)=C(/O)c2ccccc2)c2ccccc2)cc1	11.3%
COc1ccc(C(=O)NC2CCCc3c2cnn3-c2ccccc2F)o1 (stereo not drawn)	9.23%
Cc1ccc(C(=O)NC2=NCCS2)cc1	4.52%
S=c1[nH]c(-c2ccccc2)cn1/N=C/c1cccc2ccccc12	15.8%
Cc1noc(C)c1S(=O)(=O)N(CC(=O)Nc1ccc2c(c1)OCO2)c1ccc(C(C)C)cc1	13.3%
Cc1nonc1OCCNCCNc1ccccc1[N+](=O)[O-]	-1.22%
CN(C(=O)COc1ccccc1)c1nnc(C23CC4CC(CC(C4)C2)C3)s1	5.75%
CCOc1ccc(OCC)c(Nc2cc(C)nc3nc(C)nn23)c1	-3.32%
NC(=O)CC(NC(=O)Cc1cccc2ccccc12)c1ccc(NCCN2CCCCC2)c([N+](=O)[O-])c1 (stereo not drawn)	8.77%
COc1cc2c(cc1NC(=S)Nc1cccc3ccccc13)oc1ccccc12	7.37%
COc1ccccc1C(=O)NC(=O)Nc1c(C)cc(C)cc1C	13.8%
CCOCCCN(C(=O)c1snc(C(N)=O)c1N)C(C(=O)NC1CCCC1)c1ccc(F)cc1 (stereo not drawn)	12.1%
O=Nc1c(-c2c(O)[nH]c3cc(Br)ccc23)[nH]c2ccccc12	13%
CC(=O)Nc1ccc(NC(=O)COc2ccc(S(=O)(=O)N3CCCC3)cc2)cc1	10.6%
CNC(=O)CC1C(=O)N(C)C(=S)N1NC(=O)c1ccccc1 (stereo not drawn)	9.78%
O=C(CN1c2ccccc2Sc2ccccc21)NNC(=O)Nc1ccc(Cl)c(Cl)c1	13.9%
CC(C)[C@H](NC(=O)c1ccccc1)C(=O)OCC(=O)N1CCc2ccccc2C1	5.61%

SMILES	hERG current change (%, negative = inhibition) at 1uM
Cn1cccc1/C=N/N1CCN(c2ccccc2)CC1	18.1%
CC(C)[C@H](NC(=O)[C@@H]1Cc2ccccc2CN1C(=O)OC(C)(C)C)C(=O)NCC1CCC(C(=O)O)CC1 (stereo partly drawn)	7.21%
c1ccc(-c2ccc3nnnn3n2)cc1	11.9%
COc1ccccc1/C=N/NC(=S)NCc1ccco1	12.4%
Cc1nc2cc(OCc3cc(C(=O)NC(C)c4cn(C)nc4C)no3)ccc2s1 (stereo not drawn)	8.52%
Cc1cc(C)nc(N/C(=N\S(=O)(=O)Cc2ccccc2)Nc2cccc(Cl)c2C)n1	3.68%
CC1(C)CC(NC(=O)C(=O)NCCc2ccccc2)CC(C)(C)N1	8.84%
COc1ccc(C2=CC(=O)OC(C)(c3ccccc3)O2)cc1 (stereo not drawn)	11.2%
COc1cnc(-c2ccccn2)nc1Oc1ccc(Cl)c2ccccc12	-0.548%
O=C1CCCCCN1C(=O)c1ccc(C(=O)N2CCCCCC2=O)cc1	5.89%
CC(C)(C)c1ccc(OC(=O)CN2C(=O)C3C4CCC(C4)C3C2=O)cc1 (stereo not drawn)	5.86%
CCCCNC(=S)N(C)N=C1CCC(c2ccccc2)CC1 (stereo not drawn)	8.4%
Cc1ccc(S(=O)(=O)N2C(=O)/C(=C3\SC(=S)NC3=O)c3ccccc32)cc1	8.72%
CCC(=O)NC(=S)Nc1ccc(S(=O)(=O)NC2CCCCC2)cc1	4.71%
CC[C@@H](C)[C@H](NC(=O)CNC(=O)Cc1c(C)c2c(cc(C)c3c(C)coc32)oc1=O)C(=O)O	5.48%
Nc1ccc(N=Nc2ccccc2Cl)c(N)n1	13%
Cc1ccc(-c2csc3nnc(SCC(=O)NCc4ccco4)n23)cc1	7.58%
CCOc1ccccc1CNC(=O)Cn1nc(C)c2c(C)n(-c3ccc(C)cc3)nc2c1=O	17.1%
COC(=O)CN(C)C(=O)c1ccc(OC2CCN(S(=O)(=O)N(C)C)CC2)cc1	11.1%
c1ccc(SCc2cn(C[C@H]3CC[C@@H]([C@@H]4CC[C@H](Cn5cc(CSc6ccccc6)nn5)O4)O3)nn2)cc1	7.38%
CCCn1c(=O)c(F)cn(Cc2ccc(OC)c([N+](=O)[O-])c2)c1=O	1.19%
